The campaign covered roughly 110,000 compounds. About 230 (0.21%) showed an effect of 50% or more. The list shows a part of the results.
Target: DPAP1 (Plasmodium falciparum, UniProt Q8IIJ9)
Assay: primary screen, percent inhibition; read by cleavage of a fluorogenic dipeptide substrate; higher = more effect of the substance
Design: species or system P. falciparum D10 trophozoite lysates; single well
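Further: 30 min substrate incubation versus DMSO and 10 µM JCP410 controls.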

Sequence of DPAP1 (Q8IIJ9 whole entry, looked up): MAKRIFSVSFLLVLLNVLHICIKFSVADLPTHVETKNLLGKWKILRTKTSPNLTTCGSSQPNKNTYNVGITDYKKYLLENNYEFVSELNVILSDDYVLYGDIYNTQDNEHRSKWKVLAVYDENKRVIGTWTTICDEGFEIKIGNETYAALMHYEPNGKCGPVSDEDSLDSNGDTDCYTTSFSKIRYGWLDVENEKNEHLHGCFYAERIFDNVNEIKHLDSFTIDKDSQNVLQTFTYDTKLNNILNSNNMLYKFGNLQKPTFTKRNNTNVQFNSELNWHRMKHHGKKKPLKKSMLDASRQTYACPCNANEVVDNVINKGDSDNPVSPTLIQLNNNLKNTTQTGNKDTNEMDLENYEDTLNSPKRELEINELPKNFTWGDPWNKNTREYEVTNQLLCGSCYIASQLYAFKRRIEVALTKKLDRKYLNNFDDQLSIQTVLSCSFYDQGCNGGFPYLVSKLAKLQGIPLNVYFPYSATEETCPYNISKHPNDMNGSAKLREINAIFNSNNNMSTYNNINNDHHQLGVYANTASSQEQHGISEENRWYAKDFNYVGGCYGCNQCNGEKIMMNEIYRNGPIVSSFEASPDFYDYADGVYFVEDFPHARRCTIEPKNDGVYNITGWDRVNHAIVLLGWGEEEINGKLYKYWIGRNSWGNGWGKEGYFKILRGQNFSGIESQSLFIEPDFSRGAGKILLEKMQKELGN

In order of rising “% Inhibition @ 10 uM” value:
1. Cc1cc(NS(=O)(=O)c2ccc(NC(=O)C3CCCCC3)cc2)no1  -14.6%
2. O=C(O)C(Cc1c[nH]c2ccccc12)Nc1c2ccccc2nc2ccccc12 (stereo not drawn)  -11.4%
3. Cc1ccc(CN2CCN(S(=O)(=O)c3ccccc3)CC2)cc1  -7.18%
4. CCc1ccc(OCC(=O)Nc2ccc(OC)cc2)cc1  -6.82%
5. CN1CCN(c2nc(-c3ccc(C(=O)N[C@@H](Cc4cc(Cl)c(O)c(Cl)c4)C(=O)NCC#N)cc3)cs2)CC1  -6.46%
6. Cc1cc(C)nc(/N=C(/NC(=O)Nc2ccccc2)NC2CCCC2)n1  -5.3%
7. Cc1ccccc1C(=O)Nc1sc2c(c1C(=O)O)CCC2  -5.03%
8. Cc1ccc2nsnc2c1S(=O)(=O)N1CCOCC1  -5.01%
9. CC12CC(O)C3(F)C(CCC4=CC(=O)C=CC43C)C1CC=C2C(=O)CO (stereo not drawn)  -4.93%
10. CC(=O)NS(=O)(=O)c1ccc(NC(=O)[C@@H]2CCCC[C@@H]2C(=O)O)cc1  -4.43%
11. COc1ccc(-c2noc(N3CCC(C(=O)NCCc4ccc(OC)c(OC)c4)CC3)n2)cc1  -4.37%
12. COCc1cc(C)nc2sc(C(=O)NCc3ccccc3)c(-n3cccc3)c12  -4.35%
13. CCOc1ccc(NC(=O)c2ccccc2Cl)cc1  -3.72%
14. Cc1cc2nc(COc3ccc(Cl)cc3)cc(=O)n2o1  -2.19%
15. COC(=O)C1=NNC2C(=O)N(c3ccccc3OC)C(=O)C12 (stereo not drawn)  -1.85%
16. CCNC(=S)NCCc1ccc(S(N)(=O)=O)cc1  -1.81%
17. COc1cccc(CN(C(=O)c2oc3cc(C)c(C)cc3c2C)C2CCS(=O)(=O)C2)c1 (stereo not drawn)  -1.35%
18. CC(=O)N1CCC(N2CCN(c3ccc(Cl)cc3)CC2)CC1  -0.292%
19. O=C(c1ccccc1)c1ccc(Oc2ccc(C(=O)O)c(C(=O)O)c2)cc1  -0.128%
20. Cc1ccc(CNC(=O)Cn2cc3c(n2)CCCC3)cc1  0.137%
21. Cc1cc2nc3n(c2cc1C)CCN3  0.392%
22. COc1ccccc1S(=O)Cc1ccc(C(=O)NCCCN2CCOCC2)o1 (stereo not drawn)  0.458%
23. COc1ccc(C2c3c(n(C)c4ccccc34)C(=O)N2CC(=O)NC2CCCCCC2)cc1 (stereo not drawn)  1.4%
24. O=C(CCc1ccccc1)N1N=C(c2ccncc2)CC1(O)C(F)(F)F (stereo not drawn)  2.23%
25. CC(NC(=O)C1CCN(c2cnccn2)CC1)c1cccs1 (stereo not drawn)  2.25%
26. CC1CCCC(C)N1C(=O)c1cc2nc(-c3ccco3)cc(C(F)(F)F)n2n1 (stereo not drawn)  4.57%
27. COc1ccc(NC(=O)C2=C(C)NC(=O)NC2c2ccc(Br)cc2)cc1 (stereo not drawn)  57.9%

From paper PMC6919601, “Identification of Plasmodium dipeptidyl aminopeptidase allosteric inhibitors by high throughput screening” (PLoS ONE, 2019)
